From article PMC4336329 (PLoS ONE, 2015) come the findings set out here.

The structures appear in SMILES notation. Out of some 310,000 compounds screened, about 2,200 (0.71%) showed an effect of 50% or more. Effects have a minus sign here. The list shows a part of the results.

Sequence of human ether-à-go-go-related gene (hERG) potassium channel (Q12809 whole entry, looked up): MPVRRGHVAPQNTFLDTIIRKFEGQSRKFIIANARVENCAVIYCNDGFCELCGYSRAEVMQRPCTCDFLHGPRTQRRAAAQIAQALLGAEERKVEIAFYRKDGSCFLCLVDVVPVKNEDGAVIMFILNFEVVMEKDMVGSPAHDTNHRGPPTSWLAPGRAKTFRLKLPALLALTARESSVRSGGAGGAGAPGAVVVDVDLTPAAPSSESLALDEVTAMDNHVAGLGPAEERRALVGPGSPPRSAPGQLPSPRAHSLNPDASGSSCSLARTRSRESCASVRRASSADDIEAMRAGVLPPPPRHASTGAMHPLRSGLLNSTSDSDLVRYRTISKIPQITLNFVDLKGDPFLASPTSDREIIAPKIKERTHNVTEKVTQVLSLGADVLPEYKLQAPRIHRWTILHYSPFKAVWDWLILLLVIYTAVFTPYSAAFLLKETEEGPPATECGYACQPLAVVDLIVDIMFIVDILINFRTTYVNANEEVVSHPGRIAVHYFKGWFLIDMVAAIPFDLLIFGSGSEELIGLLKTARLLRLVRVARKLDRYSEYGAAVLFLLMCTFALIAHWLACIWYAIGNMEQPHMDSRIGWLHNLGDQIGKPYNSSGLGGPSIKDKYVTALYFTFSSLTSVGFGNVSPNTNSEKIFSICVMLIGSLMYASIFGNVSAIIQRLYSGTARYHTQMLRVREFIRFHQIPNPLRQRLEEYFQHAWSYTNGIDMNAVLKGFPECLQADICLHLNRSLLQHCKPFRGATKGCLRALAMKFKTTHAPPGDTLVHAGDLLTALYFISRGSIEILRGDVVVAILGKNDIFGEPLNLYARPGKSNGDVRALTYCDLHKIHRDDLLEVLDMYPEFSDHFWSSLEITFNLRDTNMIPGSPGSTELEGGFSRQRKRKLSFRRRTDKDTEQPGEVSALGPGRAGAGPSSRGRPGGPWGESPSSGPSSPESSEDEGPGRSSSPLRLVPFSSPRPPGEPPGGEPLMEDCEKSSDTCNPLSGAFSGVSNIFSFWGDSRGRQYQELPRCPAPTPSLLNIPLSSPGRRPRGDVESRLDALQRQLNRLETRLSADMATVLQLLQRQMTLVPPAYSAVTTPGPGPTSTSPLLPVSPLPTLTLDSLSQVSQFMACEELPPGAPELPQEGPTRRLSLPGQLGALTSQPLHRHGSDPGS

The assay has as its target human ether-à-go-go-related gene (hERG) potassium channel (human, UniProt Q12809). In words: primary screen, population patch clamp on CHO cells stably expressing hERG.
For the compound `COc1cc([N+](=O)[O-])ccc1N/C=C/C(=O)c1cccs1`, the “hERG current change (%, negative = inhibition) at 1uM” value is recorded as 2.88%.
Turning to `CCCCN(C(=O)c1cccc(S(=O)(=O)N(C)c2ccc(C)cc2)c1)c1c(N)n(CCCC)c(=O)[nH]c1=O`, the “hERG current change (%, negative = inhibition) at 1uM” value is listed as 4.53%.
In the case of `CN1CCN(CP(=O)(N2CCOCC2)N2CCOCC2)CC1` it was 0.225%; in that of `Cn1nnnc1SCC(=O)NC1CCCC1`, 10.5%.
In the case of `COC(=O)C1CCN(Cc2ccc(C)cc2)CC1`, the “hERG current change (%, negative = inhibition) at 1uM” value was -3.74%.
Turning to `O=C1C2C3C=CC(C3)C2C(=O)N1CCN1CCN(S(=O)(=O)/C=C/c2ccccc2)CC1` (centres unmarked), the “hERG current change (%, negative = inhibition) at 1uM” value amounted to 11%.
As for `Cn1nc(C(F)(F)F)c(/C=N/OC(=O)c2ccccc2Cl)c1SCc1ccc(Cl)cc1`, the “hERG current change (%, negative = inhibition) at 1uM” value stood at 2.65%.
With `CCN(CC)CCNC(=O)c1c(O)c2ccccc2n(Cc2ccccc2)c1=O.Cl`, the “hERG current change (%, negative = inhibition) at 1uM” value is given as -9.37%.
As for `CCCc1nc2ccccc2c(=O)n1-c1ccc(O)cc1`, the figure is 19%.
As for `Cc1ccc(-c2nn(-c3ccccc3)cc2CSC(=N)N)cc1.Cl`, the “hERG current change (%, negative = inhibition) at 1uM” value is recorded as 10.3%.
`CC(=O)Nc1nc(SCC(=O)NCc2ccc(F)cc2)[nH]c(=O)c1NC(=O)c1cccs1`: the “hERG current change (%, negative = inhibition) at 1uM” value amounted to 7.11%.
Take `Cc1ccccc1-c1nnc(-c2ccc(Cl)cc2)o1`: the “hERG current change (%, negative = inhibition) at 1uM” value came to 12%.
In the case of `CN(Cc1n[nH]c(=S)n1C)S(=O)(=O)c1ccccc1`, the “hERG current change (%, negative = inhibition) at 1uM” value was 15.7%.
Turning to `COc1ccc(O)c(/C=N/NC(=O)CCC(=O)Nc2ccc(C)cc2)c1`, the “hERG current change (%, negative = inhibition) at 1uM” value came to 9.41%.
For `CN1CCN(C2=C(Cl)C(=O)N(CCc3ccccc3)C2=O)CC1`, the “hERG current change (%, negative = inhibition) at 1uM” value was determined as 17.7%.
As to `CN(CC(=O)OCC(=O)NCc1ccccc1)S(=O)(=O)c1ccc(F)cc1`, the “hERG current change (%, negative = inhibition) at 1uM” value was 5.48%.
With `COc1ccc(NS(=O)(=O)c2cccc3nsnc23)cc1OC`, the “hERG current change (%, negative = inhibition) at 1uM” value amounted to 9.49%.
Turning to `CCOC(=O)C1CCN(C(=O)Cn2cccc2C(=O)c2ccccc2)CC1`, the “hERG current change (%, negative = inhibition) at 1uM” value is 18.7%.
Regarding `C1CN(CC2CCN(c3nc4nonc4nc3N3CCSCC3)CC2)CCO1`, the “hERG current change (%, negative = inhibition) at 1uM” value is reported as 10.8%.
Regarding `CCOC(=O)c1c(C)n(CCNC(C)=O)c2ccc(O)cc12`, the “hERG current change (%, negative = inhibition) at 1uM” value is listed as 15.9%.
Take `CC(=O)c1cc2c(cc1NC(=O)CSc1nc3ccccc3o1)OCO2`: the “hERG current change (%, negative = inhibition) at 1uM” value was 10.3%.
On to `CC(=O)N(Cc1ccc2c(c1)OCO2)C1CC(=O)N(CCc2ccccc2)C1=O` (centres unmarked), for which the “hERG current change (%, negative = inhibition) at 1uM” value is given as 8.14%.
Take `COc1cc2c(cc1OC)CN(C(=O)CCN1C(=O)C3CCCCC3C1=O)CC2` (centres unmarked): the “hERG current change (%, negative = inhibition) at 1uM” value was 10.4%.
For `CC(C)CCOc1ccc(/C=N/N2C(=O)CSC2=S)cc1`, the “hERG current change (%, negative = inhibition) at 1uM” value is listed as 9.04%.
As for `CCCCN(C(=O)c1cccs1)C1CCS(=O)(=O)C1` (centres unmarked), the figure is -6.95%; as for `CC(=O)c1ccc(OCC(O)CN2CCc3ccccc3C2)cc1.Cl` (centres unmarked), -17.3%; as for `CCc1ccc2nc(N3C(=O)c4oc5ccccc5c(=O)c4C3c3ccc(OC)c(OC)c3)sc2c1` (centres unmarked), 18%.
Consider `CCOc1ccccc1NC(=O)COC(=O)C1CC1`, for which the “hERG current change (%, negative = inhibition) at 1uM” value came to 8.86%.
For the compound `Cc1ccc(NC(=O)C(NS(=O)(=O)c2cccc3nsnc23)C(C)C)nc1` (centres unmarked), the “hERG current change (%, negative = inhibition) at 1uM” value was determined as 6.99%.
As for `Cc1nc2ccccc2n1C(C)c1ccccc1` (centres unmarked), the figure is 11.9%; as for `OCC1(CCc2ccccc2)CCCN(CCCC(F)(F)F)C1` (centres unmarked), -13.2%; as for `CC1CC(C(F)(F)C(F)(F)F)n2nc(C(=O)O)cc2N1` (centres unmarked), 4.91%.
Regarding `CCN(CC)S(=O)(=O)c1ccc2c(c1)N(CC(=O)N(CCc1ccncc1)C(C)C)C(=O)CO2`, the “hERG current change (%, negative = inhibition) at 1uM” value was -13.5%.
With `C=CCc1cccc2cc(C(=O)N3CCOCC3)c(=O)oc12`, the “hERG current change (%, negative = inhibition) at 1uM” value is 9.2%.
As for `OCC[C@@H]1C[C@H](O)[C@@H](O)[C@@]2(CCCCO2)O1`, the figure is 8%.
With `O=C(Nc1cccc(Cl)c1N1CCCC1)c1cc2ccccc2o1`, the “hERG current change (%, negative = inhibition) at 1uM” value came out at 7.01%.
With `CN1CCN(C2=NC(=O)/C(=C/c3cn[nH]c3-c3ccccc3)S2)CC1`, the “hERG current change (%, negative = inhibition) at 1uM” value amounted to 13.9%.
`CCOc1ccccc1NC(=O)NNS(=O)(=O)c1ccc([N+](=O)[O-])cc1`: the “hERG current change (%, negative = inhibition) at 1uM” value turned out to be 1.81%.
With `CCOC(=O)N1CCN(CC(O)COc2c(C)cccc2C)CC1.Cl` (centres unmarked), the “hERG current change (%, negative = inhibition) at 1uM” value was determined as 5.97%.
`Brc1ccc2c(c1)C(c1cccnc1)=NNC(c1cccs1)=N2`: the “hERG current change (%, negative = inhibition) at 1uM” value is -4.52%.
In the case of `O=C(/C=C/c1ccc(O)c(O)c1)c1ccccc1O` it was 6.73%; in that of `O=C(Cn1cnc2scc(-c3ccc(Cl)cc3)c2c1=O)N1CCOCC1`, 0.744%.
In the case of `COc1ccc(Cn2c(SCc3ccc(C)cc3)nc3cc(OC)c(OC)cc3c2=N)cc1Cl` it was 17.2%; in that of `COc1cccc(-n2nc(C(=O)N3CCC4(CC3)OCCO4)c3ccccc3c2=O)c1`, 4.52%.
